This data set deals with ATP. Description: switch fluorescence ratio, 500 uM ATP over buffer (Cy3 cluster intensity, sum of 5 cycles each) (fold (ratio)); higher = stronger signal-on switching upon ATP binding; sequences stand for … in TCGTCGGCAGCGTCAGATGTGTATAAGAGACAGTTTTTTTTTTTTTTTTTTTTTTTTT…TC. To be noted: aptamer strand: ATP DNA aptamer (quencher-CACCTGGGGGAGTATTGCGGAGGAAGG + anchor), 100 nM annealed; ATP concentration: 500 uM; one replicate. Summed up:
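Cy3-labelled switching-strand clusters on a modified Illumina MiSeq flow-cell were annealed to 100 nM quencher-labelled ATP aptamer and imaged first in selection buffer, then after 15 min with 500 uM ATP at 22 °C. NaOH stripping and re-annealing separated each of five buffer/ATP cycles, and clusters outside 100-1000 RFU were excluded. The fluorescence ratio sums target-cycle Cy3 intensity over buffer-cycle Cy3 intensity per cluster and averages it per switch-domain sequence.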

This is an account of results in the supplement of paper PMC10126150.

Sequences with one replicate were seen in a single cluster, so their values are uncertain.
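Note: ATP exposure 15 min at 22 °C before imaging.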

Turning to TTCCCGATTA, the switch fluorescence ratio came to 1.05.

On to GTTGATTAAG, for which the switch fluorescence ratio worked out at 0.975.

As to TATTGGAGGA, the switch fluorescence ratio came to 0.975.

As for TGGGAAGAAC, the switch fluorescence ratio worked out at 0.969.

Turning to TTACATATAT, the switch fluorescence ratio is 1.04.

As to GGTAAACTTT, the switch fluorescence ratio amounted to 0.928.

Turning to ATGGAGCAGC, the switch fluorescence ratio came out at 1.14.

In the case of ACCAGTTGGG, the switch fluorescence ratio worked out at 0.97.

As to GAAGCGAGGT, the switch fluorescence ratio was 1.02.

In the case of CGGCGAGGAA, the switch fluorescence ratio came out at 1.01.

With ACTACTCTCA, the switch fluorescence ratio stood at 1.

Turning to GACCGCGCTC, the switch fluorescence ratio worked out at 1.87.

On to GCCCCACCCA, for which the switch fluorescence ratio came out at 1.04.

Take GTCGGCGCGA: the switch fluorescence ratio stood at 1.01.

Consider AGGTGGGGTA, for which the switch fluorescence ratio is 0.969.

For the sequence GGGAAAGTAC, the switch fluorescence ratio came to 1.29.

TACGGGAAAA: the switch fluorescence ratio worked out at 1.06.

Take GAAGATAAAA: the switch fluorescence ratio was 1.01.

As to GCAACGAGGA, the switch fluorescence ratio stood at 1.02.

As for GTTGTTAGTT, the switch fluorescence ratio turned out to be 0.975.

With CATGGTAAAG, the switch fluorescence ratio was determined as 1.02.

As to AAATAGGG, the switch fluorescence ratio came to 1.02.

As to GGGCCGGGCA, the switch fluorescence ratio was determined as 1.02.

Consider AACATGACTG, for which the switch fluorescence ratio was 1.03.

For the sequence GGTCGTGGGT, the switch fluorescence ratio is 0.984.

Regarding CAGTGATCTG, the switch fluorescence ratio came to 0.966.

On to TCAGAGGGGA, for which the switch fluorescence ratio is 1.08.

For ATAGAATGC, the switch fluorescence ratio was found to be 1.03.

On to TGCGCTGGGG, for which the switch fluorescence ratio amounted to 1.02.

For the sequence CCTTGAATGC, the switch fluorescence ratio came to 2.4.

Take CATATAACGC: the switch fluorescence ratio is 0.998.

On to ACGTGAGTAG, for which the switch fluorescence ratio was determined as 1.01.

Consider GGTATCGTTA, for which the switch fluorescence ratio is 1.

For GTTTGTAATG, the switch fluorescence ratio was determined as 0.984.

Turning to CATGGGATGT, the switch fluorescence ratio was determined as 1.07.

As to ACTTCAAAAA, the switch fluorescence ratio worked out at 1.01.

With CAAGACTTAC, the switch fluorescence ratio was 1.32.

As for TGCAAGATT, the switch fluorescence ratio stood at 2.65.

AGCGCCTGGC: the switch fluorescence ratio stood at 1.05.

On to CATAGTTCTT, for which the switch fluorescence ratio turned out to be 1.04.

As for CGAAGAATGA, the switch fluorescence ratio worked out at 0.986.

Take ATATGTACGG: the switch fluorescence ratio is 1.06.

Consider ATTGGCGA, for which the switch fluorescence ratio amounted to 1.02.

Consider GTGGAAGCGG, for which the switch fluorescence ratio came to 0.97.

As to TGGCGCTACT, the switch fluorescence ratio came to 1.09.

As to CGAAAGGTTT, the switch fluorescence ratio came to 0.981.

For ATTTTCGCGA, the switch fluorescence ratio is 2.21.

Regarding ATCTCACCTA, the switch fluorescence ratio worked out at 1.05.

With GGGTCGATGG, the switch fluorescence ratio stood at 0.957.

For the sequence CTGAGCGAAA, the switch fluorescence ratio was determined as 1.17.

In the case of CCAGCGGGAC, the switch fluorescence ratio was found to be 2.61.

As to TTCCCTGGCG, the switch fluorescence ratio was found to be 1.

For TCATACTGAT, the switch fluorescence ratio worked out at 1.01.

In the case of CTCTAAGGGA, the switch fluorescence ratio turned out to be 0.986.

Take CCGTACACA: the switch fluorescence ratio amounted to 1.16.

On to TCTCTTTCGT, for which the switch fluorescence ratio is 1.03.

For the sequence TTAGGAGGAG, the switch fluorescence ratio worked out at 0.974.

As to AAGGCTATTA, the switch fluorescence ratio was found to be 1.

For GTTCTTTAGC, the switch fluorescence ratio stood at 1.02.

GCGGCGAGGT: the switch fluorescence ratio is 1.02.

Take AGGGTTTTA: the switch fluorescence ratio turned out to be 1.

Consider ACGTGTGATA, for which the switch fluorescence ratio was 0.992.

For the sequence CCGGGCACAG, the switch fluorescence ratio came to 1.32.

Turning to TCTTGGTACT, the switch fluorescence ratio came to 0.968.

Regarding GACCTCACTT, the switch fluorescence ratio worked out at 1.16.

GCTTATTTAG: the switch fluorescence ratio is 0.931.

For TCTATAACAC, the switch fluorescence ratio was 1.04.

Turning to AGGTGTACAC, the switch fluorescence ratio is 1.01.

With ATAACAATTG, the switch fluorescence ratio turned out to be 0.971.

Regarding TTGTTTGTGG, the switch fluorescence ratio came to 1.01.

On to CGGGACGTTC, for which the switch fluorescence ratio was 1.

ATCCGGATGT: the switch fluorescence ratio was 0.967.

As to AGATAGCTAG, the switch fluorescence ratio came out at 0.987.

As for TGGGTAAACT, the switch fluorescence ratio was determined as 1.08.

Take TAGACGCAGA: the switch fluorescence ratio came out at 1.1.

Regarding GCAATCAATC, the switch fluorescence ratio is 1.37.

On to GTGATATGTA, for which the switch fluorescence ratio came out at 0.957.

For the sequence ATGTGATCTT, the switch fluorescence ratio was found to be 0.971.

Turning to ACAGGGGTGC, the switch fluorescence ratio amounted to 1.15.

With TTATTTTGCA, the switch fluorescence ratio came to 0.974.

As for TCAAGGGGGG, the switch fluorescence ratio was determined as 1.01.

As for CAACCCGCTT, the switch fluorescence ratio is 1.28.

As for ATCTCTTTG, the switch fluorescence ratio was found to be 1.03.

Regarding CAAAGCGCGT, the switch fluorescence ratio amounted to 1.05.

In the case of GAGCGCAGGT, the switch fluorescence ratio was determined as 1.07.

As to TATGCAACTG, the switch fluorescence ratio is 0.997.

Regarding TCAAAAGTGA, the switch fluorescence ratio is 0.966.

For the sequence GGTAAATTGG, the switch fluorescence ratio is 0.974.

As to ACCCGCGTCA, the switch fluorescence ratio worked out at 1.25.

Consider CGCCCTACGA, for which the switch fluorescence ratio is 1.2.

For the sequence GATACGGAAC, the switch fluorescence ratio was found to be 1.24.

Turning to ACCCCCCATT, the switch fluorescence ratio was 1.31.

On to CATTGTGATG, for which the switch fluorescence ratio amounted to 1.

As to AGGGGCGTCC, the switch fluorescence ratio was found to be 0.959.

As for AGAAAAGAGC, the switch fluorescence ratio is 1.03.

Take CGTAGATACT: the switch fluorescence ratio worked out at 1.16.
